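Five compound concentrations were applied to cells in 96-well plates for 48 hours; endpoints were derived by simple linear interpolation of the resulting dose-response curve. The concentration for 50% growth inhibition is given as GI50.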 Activity calls are given as the source filed them. No stated cut-off is given here; in the data, active = GI50 up to about 1.1 µM and inactive = higher.

For the test, the system named is NCI-H322M. As to the kind of experiment: DTP human tumour cell line panel, 48 h.
One may read the GI50 as the concentration giving 50% growth inhibition. As for `c1cc(CSSCc2ccncc2)ccn1`, the GI50 is inactive: 57.9 µM.

On to `c1ccc2c3c(c(N4CCOCC4)nc2c1)CCCC3`, for which the GI50 was inactive: 28.5 µM.

As for `COc1ccc(C=O)cc1O[Si](C)(C)C(C)(C)C`, the GI50 was inactive: > 100 µM.

In the case of `Cn1cco/c1=N/c1ccc(Cl)c(Cl)c1`, the GI50 is inactive: > 10 µM.

With `O=c1[nH]c(=O)n(CCOc2ccccc2)cc1Nc1ccccc1`, the GI50 is inactive: > 100 µM.

Regarding `O=C1NC(=S)NC(=O)C1=Cc1ccc2ccccc2n1`, the GI50 is inactive: > 100 µM.

In the case of `O=C(/C=C/c1cccc(Br)c1)c1ccc(Cl)cc1`, the GI50 is inactive: 18.1 µM.

For the compound `CCOc1cc(NC(C)=O)ccc1C(=O)NN1C(=O)CSC1c1ccc(O)c(OC)c1` (stereo not drawn), the GI50 was inactive: > 100 µM.

On to `COC(=O)C#CC1(O)C=CC(=O)C=C1`, for which the GI50 was inactive: 9.84 µM.

`O=C(CO)CC(=O)C(=O)Nc1cccc(C(F)(F)F)c1`: the GI50 is inactive: > 100 µM.

`OCCc1ccsc1-c1sc(-c2cc(CCO)c(-c3sc(-c4cc(CCO)c(-c5sccc5CCO)s4)cc3CCO)s2)cc1CCO`: the GI50 is inactive: 1.27 µM.

Regarding `CN1C/C(=C\C=C\c2ccccc2)C(=O)/C(=C/C=C/c2ccccc2)C1`, the GI50 is inactive: > 100 µM.

With `CCCCCC(=O)Nc1[nH]nnc1C(N)=O`, the GI50 is inactive: > 100 µM.

With `OC(c1ccccc1)c1c(-c2ccccc2)oc(-c2ccccc2)c1C(O)c1ccccc1` (stereo not drawn), the GI50 is inactive: 12.6 µM.

On to `COC(=O)C(CC1=C(O)Nc2ccccc2N1)/C(=N/NC(N)=O)C(=O)Nc1ccccc1C` (stereo not drawn), for which the GI50 is inactive: > 100 µM.

On to `N#Cc1ccc(/N=N/N2CCCC2)cc1`, for which the GI50 was inactive: > 100 µM.

For `CCCCOC(=O)NC(Nc1ccc(S(N)(=O)=O)cc1)(C(F)(F)F)C(F)(F)F`, the GI50 was inactive: > 100 µM.

As for `C=C(Br)COc1ccc2c(C)cc(=O)oc2c1`, the GI50 is inactive: > 100 µM.

Turning to `Oc1c(O)c(Cc2ccccc2)c(Cc2ccccc2)c(Cc2ccccc2)c1Cc1ccccc1`, the GI50 was inactive: > 10 µM.

`CCOP(=O)(OCC)/C(C#N)=C\c1cccc2ccccc12`: the GI50 was inactive: > 62.5 µM.

For the compound `CC[C@H](C)[C@H](NC(=O)[C@H](Cc1ccc(O)cc1)NCC(F)(F)F)C(=O)OC(C)(C)C`, the GI50 is inactive: 8.73 µM.

`COc1cc2c(c3c1c(=O)c1ccccc1n3C)C=CC1(CCCC1)O2`: the GI50 is inactive: 14.6 µM.

As for `COc1cc(C(=O)N(C(=O)N2CCCCC2)c2ccccc2)cc(OC)c1OC`, the GI50 is inactive: > 100 µM.

On to `c1ccc2c(c1)CC1COc3ccccc3C1O2` (stereo not drawn), for which the GI50 is inactive: 53.8 µM.

Turning to `O=C(O/N=C1/CCC/C1=C\c1ccccc1)c1ccccc1`, the GI50 is inactive: > 100 µM.

For the compound `Clc1ccc(-c2nn3c(COc4cccc(OCc5nnc6sc(-c7ccc(Cl)cc7)nn56)c4)nnc3s2)cc1`, the GI50 is inactive: 37 µM.

For `CC(=O)/C=C/c1cccc(N=S)c1`, the GI50 is inactive: > 100 µM.

As to `C=CCn1c(=O)c(C)cn(/C(=C/C(=O)OCC)C(=O)OCC)c1=O`, the GI50 is inactive: 63.8 µM.

Regarding `O=C1C=Cc2noc3cccc1c23`, the GI50 was inactive: 16.2 µM.

`COC1(OC)C2(Cl)C(Cl)=C(Cl)C1(Cl)C1C2C2CC1(C(=O)O)c1ccccc12` (stereo not drawn): the GI50 is inactive: 49.2 µM.

In the case of `O=c1nc(N2CCNCC2)oc2cc(Cl)oc(=O)c12`, the GI50 is inactive: 16.1 µM.

As for `Brc1ccc(C2SCc3nc4ccccc4n32)cc1` (stereo not drawn), the GI50 was inactive: 16.4 µM.

`CSC12c3cc(C)n(-c4ccc(I)cc4)c3CC(C)(C)CN1C(=O)C2Oc1ccccc1` (stereo not drawn): the GI50 was inactive: > 100 µM.

Take `N#CCCN(c1ccc(/C=N/c2ccccc2)cc1)S(=O)(=O)c1ccccc1`: the GI50 is inactive: 66.8 µM.

Take `COc1ccc2c(c1)C(=O)OCCC2`: the GI50 is inactive: > 100 µM.

In the case of `CC(C)C1=CC(=O)[C@@](C)(C2[C@H](O)C[C@@]3(C)[C@@H]4CC=C5[C@@H](CC[C@@H](OC6OCC(O)C(O)C6OC6OC(C)C(O)C(O)C6O)C5(C)C)[C@]4(C)C(=O)C[C@]23C)O1` (stereo partly drawn), the GI50 is inactive: > 100 µM.

In the case of `OC(O)(C(F)(F)F)C(F)(F)F`, the GI50 is inactive: > 100 µM.

For `COc1ccc(C2CC(c3c(O)ccc4ccccc34)=NN2C(C)=O)cc1OC` (stereo not drawn), the GI50 was inactive: 39 µM.

Consider `CC(=O)OCC12C(OC(C)=O)C[C@@H](C)C3(CC(c4ccoc4)OC3=O)C1CCC(OC(C)=O)C21CO1` (stereo partly drawn), for which the GI50 was inactive: > 100 µM.

In the case of `O=C1C2=C(C3=NCCc4c[nH]c1c43)c1c(cc(Br)c(O)c1Br)CCN2`, the GI50 was inactive: 17.2 µM.

Take `Cc1noc(NS(=O)(=O)c2ccc(NC(=O)c3ccc4[nH]c5ccccc5c(=O)c4c3)cc2)c1C`: the GI50 is inactive: 27.3 µM.

As to `CC(=O)c1c2c(cc3c1CC1(C3)Cc3cc4c(c(C(C)=O)c3C1)CCC4)CCC2`, the GI50 is inactive: > 100 µM.

Consider `N#CCCN(c1ccc(/C=N/c2ccc(C(=O)O)cc2)cc1)S(=O)(=O)c1ccccc1`, for which the GI50 was inactive: > 100 µM.

Regarding `N#CC(Nc1ccccc1)c1ccc(C(C#N)Nc2ccccc2)cc1` (stereo not drawn), the GI50 is inactive: > 100 µM.

Take `Cc1ccc(S(=O)(=O)n2cc(/C=C/C#N)c(-c3cn(S(=O)(=O)c4ccc(C)cc4)cc3-c3cn(S(=O)(=O)c4ccc(C)cc4)cc3/C=C/C#N)c2)cc1`: the GI50 is inactive: > 100 µM.

As to `C#CCn1c(=O)c(Cl)cn(/C(=C/C(=O)OCC)C(=O)OCC)c1=O`, the GI50 was inactive: > 41.6 µM.

Consider `c1ccc(-c2ccc(-c3cc4ccccc4[nH]3)cc2)cc1`, for which the GI50 is inactive: > 100 µM.

As for `CN(C)/N=N/c1nc2c(c(=O)n(C)c(=O)n2C)n1CC(O)CO` (stereo not drawn), the GI50 is inactive: > 100 µM.

Regarding `CNc1nc(N)cc(O)n1`, the GI50 was inactive: > 100 µM.

Turning to `COC(=O)C1=C(OC(=O)/C(=C/c2ccc(Cl)cc2)c2ccc(Cl)cc2)C(C(=O)OC)[C@]2(O)[C@@H](C(=O)OC)[C@H]1C[C@@H](c1ccccc1)[C@@H]2C(=O)OC` (stereo partly drawn), the GI50 is inactive: > 100 µM.

Consider `CCOC(=O)/N=c1/nc(N(C)C)ss1`, for which the GI50 is inactive: > 100 µM.

In the case of `C=C[C@@]1(C)CC(=O)[C@]2(O)[C@@]3(C)[C@@H](O)CCC(C)(C)[C@@H]3[C@H](O)[C@@H](OC(C)=O)[C@@]2(C)O1`, the GI50 is inactive: > 100 µM.

Turning to `O=C(/C=N/c1ccccc1[S-])c1ccco1.O=C(/C=N/c1ccccc1[S-])c1ccco1.[Zn+2]`, the GI50 was inactive: 3.44 µM.

Consider `N#C[BH2-][n+]1ccc(C(=O)NNCc2cccc(C(F)(F)F)c2)cc1`, for which the GI50 is inactive: 15.7 µM.

`C[C@@H]1OCC(O)C([C@H]2OC(c3ccccc3)=N[C@H]2CO)O1` (stereo partly drawn): the GI50 is inactive: > 100 µM.

For `CCc1nc(N)nc(N)c1-c1ccc(NC)c([N+](=O)[O-])c1`, the GI50 was active: 0.982 µM.

Consider `c1ccc([P+](c2ccccc2)(c2ccccc2)c2ccc(-c3ccc([P+](c4ccccc4)(c4ccccc4)c4ccccc4)cc3)cc2)cc1`, for which the GI50 is inactive: 46.2 µM.

On to `COc1cc2c(c(OC)c1OC)-c1ccc(SC)c(=O)cc1[C@@H](NC(=O)c1ccc(F)cc1)CC2`, for which the GI50 was active: 0.0798 µM.

The record behind these values is ChEMBL document CHEMBL1201862, “PubChem BioAssay data set” (2004).
